Measurements: US20200339692A1 (JIANGSU HENGRUI MEDICINE, published 2020)

Columns and labels:
[1] = target: T1, human PD-L1 (ligand blocking test) (human, UniProt Q9NZQ7 fragment, limits assumed); assay: blocking of B7-1 binding to human PD-L1, PD-L1 1 ug/ml; competitor B7-1
[2] = target: T1, human PD-L1 (ligand blocking test); assay: blocking of human PD-L1/PD-1 binding, PD-L1 10 ug/ml; competitor PD-1
[3] = target: T2, human PD-L1 (Cat. #10084-H08H, Sino Biological) (human, UniProt Q9NZQ7 fragment); assay: SPR, Biacore X100, 1:1 Langmuir
T2 construct: Bought recombinant protein used in the Biacore test; also called hPDL1; hPD-L1
Method: (§1) According to the method in the manual of human anti-capture kit (Cat. A BR-1008-39, GE), the human anti-capture antibody was covalently coupled to biosensor chip CM5 (Cat. #BR-1000-12, GE) so that a certain amount of human PD-L1 (Cat. #10084-H08H, Sino Biological) monkey PD-L1 (Cat. #90251-C08H, Sino Biological), mouse PD-L1 (Cat. #50010-M08H, Sino Biological) were affinity captured. The affinity of PD-L1 antibody reacting with PD-L1 was measured with Biacore X100, GE instrument.

[4] = target: T3, monkey PD-L1 (Cat. #90251-C08H, Sino Biological) (monkey (cyno), UniProt G7PSE7 19-239); assay: SPR, Biacore X100, 1:1 Langmuir
T3 construct: Bought recombinant protein used in the Biacore test; also called Monkey (cyno) PD-L1; Cyno PDL1
Method: as §1

[5] = target: T4, mouse PD-L1 (Cat. #50010-M08H, Sino Biological) (mouse, UniProt Q9EP73 fragment); assay: SPR, Biacore X100
T4 construct: Bought recombinant protein used in the Biacore test
Method: as §1

T3 sequence (G7PSE7 entry or part of it C08H C08H): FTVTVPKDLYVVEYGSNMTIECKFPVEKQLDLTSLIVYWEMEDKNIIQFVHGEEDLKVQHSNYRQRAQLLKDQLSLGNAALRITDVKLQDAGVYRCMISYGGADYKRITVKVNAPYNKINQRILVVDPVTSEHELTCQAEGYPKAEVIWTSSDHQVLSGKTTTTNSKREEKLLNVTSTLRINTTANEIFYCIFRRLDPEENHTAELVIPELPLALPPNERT
T1 sequence (Q9NZQ7 19-238 limits assumed): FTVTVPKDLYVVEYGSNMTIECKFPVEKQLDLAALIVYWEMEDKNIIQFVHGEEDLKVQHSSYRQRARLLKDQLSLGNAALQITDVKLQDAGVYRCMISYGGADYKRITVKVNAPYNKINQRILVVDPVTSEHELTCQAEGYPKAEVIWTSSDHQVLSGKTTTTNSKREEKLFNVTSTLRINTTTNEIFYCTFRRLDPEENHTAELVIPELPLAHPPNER
T4 sequence (Q9EP73 19-238 limits assumed, stated change not applied): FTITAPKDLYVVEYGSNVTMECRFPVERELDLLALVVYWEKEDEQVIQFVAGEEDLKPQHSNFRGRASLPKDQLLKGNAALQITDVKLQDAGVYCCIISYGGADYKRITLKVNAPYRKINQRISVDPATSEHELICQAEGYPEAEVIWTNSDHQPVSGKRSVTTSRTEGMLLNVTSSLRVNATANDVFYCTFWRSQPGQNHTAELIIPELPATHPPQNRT

IC50 [1]: 1.88 ng/mL
IC50 [2]: 0.265 ng/mL
B1: HRP00049-IgG1 (antibody)
heavy: QVQLQESGPGLVKPSQTLSLTCTVSGGSISNDYWTWIRQHPGKGLEYIGYISYTGSTYYNPSLKSRVTISRDTSKNQFSLKLSSVTAADTAVYYCARSGGWLAPFDYWGRGTLVTVSS[human IgG1 constant region left out]
light: DIVMTQSPDSLAVSLGERATINCKSSQSLFYHSNQKHSLAWYQQKPGQPPKLLIYGASTRESGVPDRFSGSGSGTDFTLTISSLQAEDVAVYYCQQYYGYPYTFGGGTKVEIKRTVAAPSVFIFPPSDEQLKSGTASVVCLLNNFYPREAKVQWKVDNALQSGNSQESVTEQDSKDSTYSLSSTLTLSKADYEKHKVYACEVTHQGLSSPVTKSFNRGEC
notes: HRP00049-IgG1 is built by analogy

Kd [3]: 0.186 nM
koff [3]: 0.000119 s⁻¹
kon [3]: 638000 M⁻¹ s⁻¹
Kd [4]: 0.187 nM
koff [4]: 0.000111 s⁻¹
kon [4]: 593000 M⁻¹ s⁻¹
binding result [5]: no binding
B2: HRP00049: 9-2 (H2/L10) IgG4(AA)(S228P) (antibody)
heavy: QVQLQESGPGLVKPSQTLSLTCTVSGGSISNDYWTWIRQHPGKGLEYIGYISYTGSTYYNPSLKSRVTISRDTSKNQFSLKLSSVTAADTAVYYCARSGGWLAPFDYWGRGTLVTVSSASTKGPSVFPLAPCSRSTSESTAALGCLVKDYFPEPVTVSWNSGALTSGVHTFPAVLQSSGLYSLSSVVTVPSSSLGTKTYTCNVDHKPSNTKVDKRV[human IgG4 Fc with S228P F234A L235A (EU numbers) left out]
light: B1 light
notes: Parent antibody from WO2017084495A1

Each block holds one binder with its values, some of them ahead of it.
